# Laboratory results as given in paper PMC12040169 (PLOS Biology, 2025).
# This is one part of the list.
# System: T1, C. trachomatis L2/434/Bu expressing GFP (CTL2-GFP)
# T1 construct: L2/434/Bu GFP intracellular growth in HeLa cells
# Design: species or system HeLa; C. trachomatis total inclusion area by high-content imaging, normalised to DMSO
# Conditions: total inclusion area; 28.5 h, 10 µM; inhibitor
# Procedure, shortened: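 Imaging read-out: GFP inclusions and Hoechst nuclei captured by high-content imaging after fixation. Inclusion area/number = chlamydial growth; nuclei count = host cell viability. MIC calculated per earlier method.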
row,Compound,% of control remaining
1,COc1cccc(CN2CCCC(NC(=O)c3cn4ccsc4n3)C2)c1 (stereo not shown) [CBK307204],94.7495
2,C=CCOc1ccc(Cl)cc1C(=O)NCc1c(C)n[nH]c1C [CBK282587],97.2151
3,CC(C)Nc1cncc(Sc2cccc(C(=O)O)c2)n1 [CBK093582],80.1807
4,Cc1cc(C)n(CCNC(=O)N2CCC(Oc3cccnc3)CC2)n1 [CBK306719],66.6751
5,CN(Cc1ccncc1)C(=O)c1cccc(S(=O)(=O)NCC2CC2)c1 [CBK305365],70.7707
6,COc1ccc(NC(=O)c2ccc3ncsc3c2)cc1 [CBK287368],82.8766
7,Cc1ccc(S(=O)(=O)N[C@H]2CO[C@H]3[C@@H]2OC[C@H]3O)cc1 [CBK289477],117.37
8,Cc1cc(=O)c2ccccc2n1CC(=O)N(C)CC1CCCCO1 (stereo not shown) [CBK306960],43.5516
9,O=C(O)CCCC(=O)NCc1cccnc1 [CBK261708],81.6713
10,CC(NC(=O)c1ccc(-c2ccccc2F)s1)C(=O)N1CCCCC1 (stereo not shown) [CBK305740],62.3017
11,Sc1nncn1NCc1cc(Cl)ccc1OCc1ccccc1 [CBK265752],95.3455
12,COc1cccc(CN2CCc3cc(OC)c(OC)cc3C2)c1 [CBK126441],103.379
13,CC(=O)c1c(C)nc2nc(-c3ccncc3)nn2c1C [CBK288552],88.8485
14,O=C(NNC(=O)c1cccnc1)c1ccc(NC(=O)c2ccco2)cc1 [CBK266792],80.1275
15,N#CCCN(Cc1ccco1)C(=O)c1ccc(OCC2CC2)cc1 [CBK304051],58.6206
16,CCOC(=O)N1CCN(C(=O)Nc2ccc3oc(=O)n(C)c3c2)CC1 [CBK306250],71.9198
17,COc1cncc(-c2cc(Nc3ccc(NS(=O)(=O)c4ccc(C)cc4)cc3)ncn2)c1 [CBK090988],143.257
18,CCC#CC(=O)Nc1ccccc1N1CCCNCC1 [CBK024291T],97.1779
19,O=C(NC(c1ccc(Cl)cc1)c1cccnc1)C1CCN(C(=O)c2ccco2)CC1 (stereo not shown) [CBK059708],92.0573
20,CC(NC(=O)C1CCN(C2Cc3ccccc3C2)CC1)c1ccccc1 (stereo not shown) [CBK148031],113.048
21,CCn1c(-c2ccc(C)cc2)cnc1SCC(=O)N1CCN(C(C)=O)CC1 [CBK296925],108.896
22,O=C(c1ccncc1)N1CCN(S(=O)(=O)c2ccccc2[N+](=O)[O-])CC1 [CBK264196],92.7523
23,CC1CCCC(C)N1C(=O)Cn1ncn2c(cc3ccsc32)c1=O (stereo not shown) [CBK284191],71.4766
24,CC(=O)N1C[C@@H](c2cccc(C)c2)[C@@H]2CN(Cc3ccncc3)CC[C@@H]21 [CBK283370],87.7389
25,O=C(c1ccc(OC(F)(F)F)cc1)N1CCC2(CCN(Cc3ccccc3)CC2)C1 [CBK136746],96.8481
26,Cc1csc(C(Cc2ccsc2)NC(=O)c2ccnn2C)n1 (stereo not shown) [CBK285107],88.7569
27,Cc1ccc2c(c1)c(=O)cc(C(F)(F)F)n2C[C@H]1CCCN1 [CBK285303],0

row,Compound,% of control remaining
1,COc1cc(OC)cc(C(=O)N(CCC#N)Cc2ccco2)c1 [CBK305133],29.5377
2,O=C(O)CCC(=O)NC1CCN(Cc2ccccc2)CC1 [CBK287103],105.66
3,O=C(c1ccc2c(c1)N(Cc1ccc(F)cc1)C(=O)CO2)c1cccs1 [CBK286410],81.6133
4,COc1ccc(C(=O)Nc2ccc3c(c2)nc2n3CCN(Cc3ccccc3)C2)cc1 [CBK266820],112.71
5,O=C(c1[nH]nc(O)c1Cc1c(Cl)cccc1Cl)N1CCOCC1 [CBK107228],87.2818
6,CC(=O)c1ccc(-c2cnc(N)c(NCC(C)C)n2)s1 [CBK063764],126.346
7,O=C(NCc1nc2ccccc2[nH]1)c1cnc(-c2ccc(Cl)cc2)c(-c2ccco2)c1 [CBK037555],65.8926
8,CCN1CCN(CCNC(=O)Nc2ccccc2C)CC1 [CBK267842],87.6269
9,Cc1cccc(-c2noc(C)c2C(=O)NCCn2ccc(C)n2)c1 [CBK282656],124.075
10,FC(F)(F)c1ccc(OCCNc2ccccc2)nc1 [CBK115828],78.308
11,CCNC(=O)c1cnc(-c2cccc(C(F)(F)F)c2)c(-c2cccc(CO)c2)c1 [CBK037557],134.519
12,O=C(COc1ccc(F)cc1)NCc1ccc(-c2csnn2)cc1 [CBK149315],105.578
13,Cc1cc(C)n(CC(=O)N2CCCCC2C(=O)O)n1 (stereo not shown) [CBK305266],51.6367
14,Cc1ccc2nc(-c3ccc(N4C(Nc5nc(C)cc(C)n5)=NC(=O)CC4C(=O)O)cc3)sc2c1 (stereo not shown) [CBK266646],123.416
15,O=C(O)C(=O)N1CCN(C(=O)c2cc3ccccc3[nH]2)CC1 [CBK288433],113.249
16,COc1cc(/C=C(\C#N)c2nn(-c3ccccc3)c(N)c2C#N)ccc1Oc1ccc(C(F)(F)F)cc1[N+](=O)[O-] [CBK262484],117.777
17,COc1ccc(C(=O)Nc2nc(OC)cnc2-c2ccsc2)cc1 [CBK145293],122.932
18,Cc1ccccc1-c1ccccc1CC1(C(N)=O)CCN(C(=O)Cc2ccccc2)CC1 [CBK285724],95.4688
19,Cc1ccc2c(c1)CCCN2C(=O)c1cnc2c(c1)c(C)nn2C [CBK305670],82.4833
20,CC1(C)[C@H](Cc2cc(COc3ccccc3)on2)C[C@@H]1NS(C)(=O)=O [CBK289703],117.49
21,CC1CCCCN1C(=O)C1C2CCC3(CC(=O)c4ccccc4O3)C21 (stereo not shown) [CBK284960],101.313
22,Cc1noc(C)c1C(=O)Nc1ccc(S(=O)(=O)NCCc2ccccc2)cc1 [CBK268183],84.7072
23,CC1CCC2(CC1)NC(=O)N(Cc1coc(-c3ccccc3)n1)C2=O (stereo not shown) [CBK306196],65.809
24,O=C(NC(c1ccc(F)cc1)c1cnccn1)C1CCN(C(=O)c2ccco2)CC1 (stereo not shown) [CBK059956],74.5191
25,Cc1nc(SCCN2C(=O)c3ccccc3S2(=O)=O)c2ccccc2n1 [CBK296958],102.458
26,O=C(NC(c1ccc(F)cc1)c1ccccn1)C1CCN(C(=O)c2ccno2)CC1 (stereo not shown) [CBK059705],116.901
27,O=C1CCC(=O)N1CC(O)Cn1c2ccc(Cl)cc2c2cc(Cl)ccc21 (stereo not shown) [CBK262222],64.3016

row,Compound,% of control remaining
1,O=C(c1ccncc1)N1CCc2ccccc21 [CBK200280],78.5491
2,O=C(Nc1ccc2[nH]ccc2c1)N1CCc2ccccc2C1 [CBK155289],87.506
3,CCCNCc1ccc(-c2nnn(CC(=O)NCc3ccc(C4CCC4)cc3)n2)cc1 [CBK167525C],70.9884
4,c1cncc(CN2CCCN(c3nccc(OCC4COc5ccccc5O4)n3)CC2)c1 (stereo not shown) [CBK083969],78.6815
5,Cc1cc(C)c(C)c(S(=O)(=O)Nc2cc(S(=O)(=O)N3CCOCC3)ccc2F)c1C [CBK269698],82.8641
6,O=C(COc1ccccc1Cl)Nc1cccc(NC(=O)c2cccc(Cl)c2)c1 [CBK263651],92.2294
7,Cc1nc2ncccn2c1-c1csc(Nc2ccc(C(=O)O)cc2)n1 [CBK263284],100.719
8,O=C(NCCCc1ccccn1)c1cccc(N2CCCC2=O)c1 [CBK282643],97.506
9,CC(C)c1ccc(S(=O)(=O)n2ccn(-c3cccc(C(F)(F)F)c3)c2=O)cc1 [CBK106587],108.517
10,O=C(O)CC1C(=O)NCCN1CC(c1ccccc1)c1ccccc1 (stereo not shown) [CBK286539],74.432
11,Cc1ccc(C)c(NS(=O)(=O)c2ccc(NC(=O)c3ccc(CN4CCOCC4)cc3)cc2)c1 [CBK264780],102.514
12,Cc1ccc(S(=O)(=O)N2CCOCC2)cc1C(=O)NCCc1ccccc1 [CBK269658],94.4482
13,c1ccc2oc(SCCCCSc3nc4ccccc4o3)nc2c1 [CBK025465],106.776
14,CC(C)c1ccc(C(C)NC(=O)c2ccc(=O)n(CC(=O)NC3CCCC3)c2)cc1 (stereo not shown) [CBK286038],103.38
15,CC(C(=O)NCCc1ccncc1)n1cnc2ccccc21 (stereo not shown) [CBK282202],92.8263
16,CC1CCN(S(=O)(=O)c2ccc(Cl)c(C(=O)Nc3ccc(C(=O)O)cc3)c2)CC1 [CBK265170],98.1148
17,Cc1ccc(S(=O)(=O)OCCOS(=O)(=O)c2ccc(C)cc2)cc1 [CBK260986],106.076
18,COc1ccc(-c2noc(-c3cnccn3)n2)c(OC)c1 [CBK287878],85.4389
19,Cn1c(-c2cc(=O)c(C(=O)O)c[nH]2)n[nH]c1=O [CBK012603],60.1164
20,Oc1ccc(Nc2ccnc3cc(Cl)ccc23)cc1 [CBK012365C],122.625
21,Cc1cc(C)n(C(C)C(=O)NCC2(N(C)C)CCCC2)n1 (stereo not shown) [CBK281713],57.4378
22,O=C(COC(=O)C1CCN(S(=O)(=O)c2cccc3cccnc23)CC1)c1cccc([N+](=O)[O-])c1 [CBK264435],107.602
23,Cc1ccc(NC(=O)c2cnc3ccc(C)cn3c2=O)cc1 [CBK287285],84.9264
24,Cn1nc(CN2CCNC(=O)C2c2ccccc2C(F)(F)F)[nH]c1=O (stereo not shown) [CBK306269],51.2189
25,O=C(NCc1ccccc1)c1c(O)c2ccccc2n(Cc2ccccc2)c1=O [CBK291174],92.1253
